According to the supplement of paper PMC11417369:
The other results are listed elsewhere or left out.

System: PF3D7_0420300 AP2 domain 1 (GST-tagged)
Test: gcPBM binding intensity (ln(normalized median fluorescence intensity)); higher = stronger DNA binding
Summary of the method: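 Binding intensity is defined as the maximum Masliner-normalised natural-log median intensity across replicate spots for either probe orientation. It was measured on an Agilent 4 × 180k array of primer-extended double-stranded 36-bp intergenic genomic probes and negative controls, to which GST-tagged P. falciparum DNA-binding domains made in E. coli were applied for 1 h in 1× PBS with 1% milk, 0.2 mg/ml BSA, 0.5% salmon testes DNA and 0.03% Triton X-100. Detection was by Alexa488 anti-GST antibody and scanning at 488 nm.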

Row | Sequence | gcPBM binding intensity (ln)
1 | TTAGGTGTATATAATTGTACATTTTGGAAATTATAC [XGTACX_site5492] | 9.12
2 | ATCTTTCATCTACCAAGTACAAATTACTTTTTTTTT [XGTACX_site7001] | 9.51
3 | TCTTATTTAAAAATAGCACACATTATGTATATATAT [CACACA_site2822] | 9.25
4 | AGCTCGGAAAAATTAGCATGCAAAAAAAAAAAAAAA [TGCATGCA_site658] | 8.63
5 | TGAAACCATAAAGAATGTACACAGCGGTATAAGTTA [XGTACX_site674] | 9.4
6 | TTAATATATTTAAATATATATAAAATATATAATATG [CACACA_negctrl_site880] | 8.91
7 | TTTTAAATAATACATACATGCATATATACACATATA [TGCATGCA_site8] | 9.14
8 | AATAAAATAAGAAGCACACAAATATTATATATAAAA [CACACA_site3980] | 9.64
9 | TTTTGGAATTTTAGCTGTACTTTTCCTATTTTGTAT [XGTACX_site7679] | 9.54
10 | TTCTTTTCTTCTACATGTACAAATATTATATATATA [XGTACX_site2996] | 9.44
11 | TATTAATTTATATCAACACACAAAATCAATATACTT [CACACA_site1757] | 9.54
12 | AACATAAATATATATAGTACATATATATATATTCAA [XGTACX_site7287] | 9.08
13 | TTCTATATTTTAGCTGATAATATTATGAGCTTCACT [XGTACX_negctrl_site427] | 9.08
14 | CGAAATATTATGTACGCACACACATTTTTAATATAT [CACACA_site3852] | 9.72
15 | ATATAGATCAGACACACACACATGTTTTAAAACTAT [CACACA_site6186] | 9.98
16 | AAGGAATAATATAAAACACACACATAAATATAAATA [CACACA_site9115] | 10.1
17 | AATATATGGTATAATTGTACAAAAAAAAAAAAAAAA [XGTACX_site1476] | 8.88
18 | CTTTAACCTTTTTATTGTACTTTTAATATTTTAAAA [XGTACX_site4457] | 9.15
19 | TCTTTAATGAACAAATGTACAAGAACAATACCCGCA [XGTACX_site2047] | 9.58

Row | Sequence | gcPBM binding intensity (ln)
20 | GTGAAATGGAAAAAAAGTACAGATTACATAAGTATT [XGTACX_site6355] | 9.38
21 | TGCTTATATATACGTGCACACATATATATAAGATAT [CACACA_site8516] | 9.34
22 | TATTTTAATTATAAATTTAAAAAAAAAAAGAAAAAA [CACACA_negctrl_site1674] | 9.01
23 | CTGGAGGATGAAAAAAGTACAAAAGGAGGAAATGTA [XGTACX_site8846] | 9.44
24 | AAAACAAATATATTAACACACAAACATATAAACAAA [CACACA_site6052] | 10
25 | AGCTCATGCAGGTGTACACAAAAAGAAAAAAAATAA [CACACA_site4828] | 9.2
26 | CCCCATATAATGAACACACACACTCCTCATAATTAA [CACACA_site628] | 10.2
27 | ATGTCCTCAATGTTTACACACTCTTTTATATAAGTT [CACACA_site1460] | 9.71
28 | ATAAATAATGTTGACACACACAATAATCTTATTATG [CACACA_site3593] | 9.57
29 | AACGTTCAATTTAAATGTACAAATGTATTTAAATAT [XGTACX_site315] | 9.16
30 | AGTTTAGAATTTAATACACACAAAAAAAAAAAATTA [CACACA_site7698] | 9.55
31 | AAATACAAAATTGTTACACACATATTAAGTATGACA [CACACA_site4421] | 9.49
32 | TTTCTTTTTTCATTTACACACAATAATATAAGAATA [CACACA_site3164] | 9.32
33 | TACACAAATATATATATATATATATATATATATATA [XGTACX_negctrl_site305] | 9.49
34 | TTGTGTTTTACATATACATGCAAATTTTTTTTTTTA [TGCATGCA_site303] | 8.99
35 | TAAATCATTTCATGGCATTTACACAAAATTTTTTAA [CACACA_negctrl_site1260] | 8.88
36 | TATAGCATAAATATGTGTACATATTTATATGATATT [XGTACX_site6333] | 9.17
37 | TATTTATTTATATAAACACACATAAATATAAATATA [CACACA_site6653] | 9.22
38 | TATATATAATATTATACACACATATATGCATAATAT [CACACA_site54] | 9.46

Row | Sequence | gcPBM binding intensity (ln)
39 | ATATATATTTAAAAAAGTACAGAAGAAAATAACCCA [XGTACX_site642] | 9.65
40 | TATTACACATATTATACACACATATATTATATATAT [CACACA_site4951] | 9.62
41 | TAACATATTTTTAATACACACTTAAAAAAGTACTTA [CACACA_site4875] | 9.09
42 | TTAAATTGAATTAGTTAACACACAACTTTTATTTCA [CACACA_site8921] | 9.14
43 | TCTTCATACGACTAAAAAACATTAGACTGATAAAAA [CACACA_negctrl_site628] | 8.98
44 | ATACTATATATATAAGTGCATGTTCATTATACCTAA | 9.29
45 | ATATATATTATGTGTGTGCACTTTTGTTATTATTAT | 9.92
46 | ATAACTAAATGATATTGTACAAAATAATTATATATT [XGTACX_site1331] | 9.31
47 | CATTATATGATTTATGTGCACATTCATTTATTTTAA | 9.29
48 | TATTAATAAAACCGTTGTACTACATACATAAATATT [XGTACX_site5578] | 9.12
49 | AAAAATCAATTAGAAGAACACACGTAAATTTTTTTT [CACACA_site2396] | 9.42
50 | TATTTATGTTCATATAAACACACGTAAAATTCAAGG [CACACA_site1538] | 9.26
51 | GTCCCTATAAGGGGAACACACATAAATGGATATATA [CACACA_site6612] | 9.21
52 | TCAATAAAAAAAAACGCACACACAAATATATTCCAT [CACACA_site1223] | 9.98
53 | CATATTCATAAAAGTTGTACATGCAATTTTTTTTTT [XGTACX_site2261] | 9.05
54 | TAAATGGGTGTTAATGCACACGATATGTCTATATAT [CACACA_site5321] | 9.32
55 | TATTTATTTTTCTGTTGTACTTTTCAACATGTTACA [XGTACX_site7457] | 9.29
56 | TCTACATATTAATTATGTACGAATTATTATTAGTAA [XGTACX_site6924] | 8.95
57 | ATAAATACTAGGCACACACACATATATATATATATA [CACACA_site2080] | 9.81
